Source: the supplement of paper PMC8728848
Some of the results follow.

Biological target: Neu5Gc(b2-6)Gal(b1-4)GlcNAc
Assay: glycan array binding signal (z-score within array); higher = stronger binding
Details: glycan notation: IUPAC condensed, linker removed
Method in brief: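 Arrays were curated from the Consortium for Functional Glycomics database, 3228 in total, and kept only where the protein sequence was available. Binding is expressed as a within-array Z-score. This score was averaged across arrays of the same protein sequence at different concentrations or buffers and across linkers, and negative values can be read as non-binding.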

B1: CLECb-Precomplexed (Mus musculus), P43025 (protein)
chain: MAKNGLVLCILVVSLLLDQTDGYPSRMKARKHSKRRVKAKDDDLKSQVEKLWREVNALKEMQALQTVCLRGTKVHKKCYLASEGLKHYHEANEDCISKGGTLVVPRNSDEINALRDYGKRSLPGVNDFWLGINDMVTEGKFLDVHGFAVSFLNWDRAQPSGGKRENCVLFSQSAQGKWSDEACRSSKRYICEFIIPTRTRPLEQKLISEEDLAANDILDYKDDDDKV
glycan array binding signal (z-score): -0.414
